Test results published in publication PMC11155029.
Results are given in words; binding and its absence hold for the method and conditions named. Binding seen in cells or lysates may run through a third protein. Some entries that bind do so weakly or less than the wild type.

Protein sequences, listed by entry. Tags and fused reporters are not part of them.
UniProt P52701: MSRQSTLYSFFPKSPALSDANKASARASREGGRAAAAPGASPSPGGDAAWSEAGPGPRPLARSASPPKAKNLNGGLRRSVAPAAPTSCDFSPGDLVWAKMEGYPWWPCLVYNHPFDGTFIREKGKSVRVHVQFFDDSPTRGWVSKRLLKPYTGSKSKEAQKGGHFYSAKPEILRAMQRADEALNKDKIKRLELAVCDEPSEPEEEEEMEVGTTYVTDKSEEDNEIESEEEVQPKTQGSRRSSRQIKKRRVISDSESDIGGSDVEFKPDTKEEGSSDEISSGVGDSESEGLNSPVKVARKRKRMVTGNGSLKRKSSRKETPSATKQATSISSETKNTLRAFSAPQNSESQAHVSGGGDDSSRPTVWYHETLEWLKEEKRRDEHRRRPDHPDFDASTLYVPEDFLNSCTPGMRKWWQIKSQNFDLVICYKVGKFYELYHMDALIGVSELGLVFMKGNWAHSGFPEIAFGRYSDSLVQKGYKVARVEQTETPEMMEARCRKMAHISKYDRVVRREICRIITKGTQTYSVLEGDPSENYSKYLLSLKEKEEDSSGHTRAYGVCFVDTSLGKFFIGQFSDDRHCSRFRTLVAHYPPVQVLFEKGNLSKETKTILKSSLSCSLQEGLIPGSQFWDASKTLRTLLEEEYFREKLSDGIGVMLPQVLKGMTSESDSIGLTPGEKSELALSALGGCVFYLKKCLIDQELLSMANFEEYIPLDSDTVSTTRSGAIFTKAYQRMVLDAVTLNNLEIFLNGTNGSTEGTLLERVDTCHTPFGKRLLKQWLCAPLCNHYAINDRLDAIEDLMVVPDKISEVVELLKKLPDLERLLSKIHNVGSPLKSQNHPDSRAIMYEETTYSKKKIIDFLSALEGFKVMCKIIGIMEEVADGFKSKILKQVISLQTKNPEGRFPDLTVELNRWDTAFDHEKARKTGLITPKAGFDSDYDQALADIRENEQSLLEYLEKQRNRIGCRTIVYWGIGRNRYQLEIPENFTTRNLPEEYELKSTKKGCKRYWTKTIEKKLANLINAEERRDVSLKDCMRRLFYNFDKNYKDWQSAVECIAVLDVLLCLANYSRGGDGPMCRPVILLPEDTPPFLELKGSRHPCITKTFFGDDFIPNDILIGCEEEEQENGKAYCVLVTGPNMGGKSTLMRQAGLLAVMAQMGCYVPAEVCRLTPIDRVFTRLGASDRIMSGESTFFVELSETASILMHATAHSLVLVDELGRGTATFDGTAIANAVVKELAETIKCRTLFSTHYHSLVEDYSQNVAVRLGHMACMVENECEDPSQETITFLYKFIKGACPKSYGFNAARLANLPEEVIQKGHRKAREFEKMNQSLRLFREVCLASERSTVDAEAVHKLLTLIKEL
UniProt P40692: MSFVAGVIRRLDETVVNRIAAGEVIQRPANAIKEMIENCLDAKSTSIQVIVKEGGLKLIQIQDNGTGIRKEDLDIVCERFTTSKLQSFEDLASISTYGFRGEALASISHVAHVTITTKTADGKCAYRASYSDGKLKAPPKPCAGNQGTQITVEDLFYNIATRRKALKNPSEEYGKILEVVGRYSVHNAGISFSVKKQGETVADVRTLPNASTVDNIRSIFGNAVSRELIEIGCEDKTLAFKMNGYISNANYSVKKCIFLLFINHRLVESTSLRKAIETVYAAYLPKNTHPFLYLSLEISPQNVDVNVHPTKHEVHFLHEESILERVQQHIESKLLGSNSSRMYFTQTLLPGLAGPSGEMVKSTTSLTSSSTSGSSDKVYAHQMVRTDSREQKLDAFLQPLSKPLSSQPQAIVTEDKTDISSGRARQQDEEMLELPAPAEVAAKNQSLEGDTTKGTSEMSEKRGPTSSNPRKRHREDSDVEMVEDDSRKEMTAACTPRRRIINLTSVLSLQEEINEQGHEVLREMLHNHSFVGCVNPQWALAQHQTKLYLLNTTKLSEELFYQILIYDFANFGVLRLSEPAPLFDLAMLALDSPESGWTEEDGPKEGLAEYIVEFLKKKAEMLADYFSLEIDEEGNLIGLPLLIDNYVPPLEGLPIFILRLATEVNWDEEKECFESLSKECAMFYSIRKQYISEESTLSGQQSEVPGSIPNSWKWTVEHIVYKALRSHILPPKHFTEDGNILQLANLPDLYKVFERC
UniProt Q13148: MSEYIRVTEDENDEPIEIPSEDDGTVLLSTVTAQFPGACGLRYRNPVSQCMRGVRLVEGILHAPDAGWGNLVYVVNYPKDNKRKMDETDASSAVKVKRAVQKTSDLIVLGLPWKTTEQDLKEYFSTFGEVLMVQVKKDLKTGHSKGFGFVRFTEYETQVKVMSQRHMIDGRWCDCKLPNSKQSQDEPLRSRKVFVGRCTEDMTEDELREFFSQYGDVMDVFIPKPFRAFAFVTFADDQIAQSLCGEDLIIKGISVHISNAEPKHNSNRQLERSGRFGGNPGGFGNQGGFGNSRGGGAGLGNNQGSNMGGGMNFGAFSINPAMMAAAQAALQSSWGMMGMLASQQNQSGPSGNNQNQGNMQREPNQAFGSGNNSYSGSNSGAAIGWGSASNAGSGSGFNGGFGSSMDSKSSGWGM

Experiments:
[1] = biological target: MSH6 (human (endogenous in SH-SY5Y and human spinal cord tissue)) (UniProt P52701); assay: co-IP; reverse co-IP with anti-MLH1 and anti-MSH6 antibodies from MMS-treated cell cultures; blot for TDP43
[2] = biological target: MLH1 (human (endogenous in SH-SY5Y and human spinal cord tissue)) (UniProt P40692); assay: as above
[3] = biological target: MSH6 (human (endogenous in SH-SY5Y and human spinal cord tissue)) (UniProt P52701); assay: co-IP; reverse co-IP with anti-MLH1 and anti-MSH6 antibodies from cell cultures not treated with MMS; blot for TDP43
[4] = biological target: MLH1 (human (endogenous in SH-SY5Y and human spinal cord tissue)) (UniProt P40692); assay: as above
[5] = biological target: TAR-DNA binding protein 43 (TDP43) (human (endogenous in SH-SY5Y, HEK293 and human spinal cord tissue)) (UniProt Q13148); assay: co-IP; Pierce Co-IP kit; total lysate of control (not MMS-treated) differentiated SH-SY5Y cells on anti-TDP43 resin, overnight 4 °C; Western blot for MLH1 and MSH6
[6] = biological target: TAR-DNA binding protein 43 (TDP43) (human (endogenous in SH-SY5Y, HEK293 and human spinal cord tissue)) (UniProt Q13148); assay: co-IP; Pierce Co-IP kit; 1 mg total lysate of MMS-treated differentiated SH-SY5Y cells on resin with covalently linked anti-TDP43 antibody, overnight 4 °C; Western blot for MLH1 and MSH6
[7] = biological target: TAR-DNA binding protein 43 (TDP43) (human (endogenous in SH-SY5Y, HEK293 and human spinal cord tissue)) (UniProt Q13148); assay: proximity ligation; PLA on ventral horn of human lumbar spinal cord tissue, ALS-affected patients and age-matched controls

Substance	binding [1]	binding [2]	binding [3]	binding [4]	binding [5]	binding [6]	binding [7]
TAR-DNA binding protein 43 (TDP43) (from UniProt Q13148 1-414)	binds	binds	no binding (condition: cells not treated with MMS)	no binding (condition: cells not treated with MMS)	–	–	–
MSH6 (from UniProt P52701 1-1360)	–	–	–	–	no binding (condition: cells not treated with MMS)	binds	binds
